{"source": "the supplement of paper PMC11417369", "note": "± gives the standard deviation of the averaged measurements. This is one part of the list.", "data": [{"test_system": "PfAP2-LT AP2 domain (GST-tagged)", "experiment": "gcPBM binding intensity (ln(normalized median fluorescence intensity)); higher = stronger DNA binding", "outline": "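GST-tagged P. falciparum DNA-binding domains, expressed in E. coli (about 25 μg on average), were applied for 1 h to an Agilent 4 × 180k array of primer-extended double-stranded 36-bp intergenic genomic probes plus negative controls. The binding buffer was 1× PBS with 1% milk, 0.2 mg/ml BSA, 0.5% salmon testes DNA and 0.03% Triton X-100. Bound protein was detected with Alexa488 anti-GST antibody and scanned at 488 nm. Binding intensity is the highest Masliner-normalised natural-log median intensity across replicate spots of either probe orientation.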", "values": [{"sequence": "AATGAATAAATAAACACACACACATATATAAATATG [CACACA_site6160]", "gcPBM binding intensity (ln)": "9.78 ± 0.19"}, {"sequence": "ATGTTTAATTTTTTTTTGTCCCTATAGAAGTGTCAA [CACACA_negctrl_site1103]", "gcPBM binding intensity (ln)": "8.57 ± 0.52"}, {"sequence": "TTTGAGTGCACATACACACAGACATACATTTAAATA [CACACA_site3403]", "gcPBM binding intensity (ln)": "9.07 ± 0.3"}, {"sequence": "ATAACCTAATAATACACACACATGAATATATAGAAT [CACACA_site963]", "gcPBM binding intensity (ln)": "9.48 ± 0.29"}, {"sequence": "ATATAAATATGTTCTGCACACAAATAAGTGTTTGAA [CACACA_site9291]", "gcPBM binding intensity (ln)": "9.01 ± 0.35"}, {"sequence": "TTTAAAATTTTTTTTTTTTTTTTTTTTTTTTTTTAT [TGCATGCA_negctrl_site213]", "gcPBM binding intensity (ln)": "8.04 ± 0.49"}, {"sequence": "AGGTTATAAATAAATACACACATACAAAAATATGAC [CACACA_site4773]", "gcPBM binding intensity (ln)": "9.23 ± 0.38"}, {"sequence": "AATCTGATCTTTTAAAGTACACAAAAAAAAAAAAAA [XGTACX_site115]", "gcPBM binding intensity (ln)": "8.26 ± 0.47"}, {"sequence": "AAAAAAAAAAAAAAAAGTACGTATCAAAGCATCAAA [XGTACX_site880]", "gcPBM binding intensity (ln)": "8.79 ± 0.5"}, {"sequence": "GTTTAACTGTTTTATACACACAATGTATACAATAAA [CACACA_site2959]", "gcPBM binding intensity (ln)": "8.91 ± 0.38"}, {"sequence": "CATATATATATATGTACACACATTAATAAAAAAAAA [CACACA_site3230]", "gcPBM binding intensity (ln)": "8.95 ± 0.39"}, {"sequence": "AATGAACACCTAAAATGTACGTACAAATATATTTTA [XGTACX_site7067]", "gcPBM binding intensity (ln)": "8.98 ± 0.36"}, {"sequence": "TTCTTATATATATACACACACAAAATATCTACAATG [CACACA_site736]", "gcPBM binding intensity (ln)": "9.27 ± 0.39"}, {"sequence": "CCAAAATACATTAAACGTACATGTCCTAATAAGATA [XGTACX_site21]", "gcPBM binding intensity (ln)": "8.79 ± 0.38"}, {"sequence": "TTGTTTTTATAAATATTATTACAATGAAAAAAAAAA [TGCATGCA_negctrl_site185]", "gcPBM binding intensity (ln)": "8.11 ± 0.58"}, {"sequence": "TAATATATATTATTATGTACATATATTGATTCCTTG [XGTACX_site6830]", "gcPBM binding intensity (ln)": "8.85 ± 0.47"}, {"sequence": "TATTTATTAATATGTACACACATCAACCATATTAAC [CACACA_site7001]", "gcPBM binding intensity (ln)": "9.04 ± 0.29"}, {"sequence": "ATATAATCCTTTCAAACACACAAAATATAATTAATA [CACACA_site1829]", "gcPBM binding intensity (ln)": "8.77 ± 0.42"}, {"sequence": "ATGATGGAATATTCTACACACAATTAATAAACAAAC [CACACA_site1045]", "gcPBM binding intensity (ln)": "9.21 ± 0.49"}, {"sequence": "CTATATATTTTTCATTGTACACAAATTAAAGAAAAA [XGTACX_site8385]", "gcPBM binding intensity (ln)": "8.19 ± 0.36"}, {"sequence": "TTTTTTTATAAATTCACACAAAATATAATATTAAAA [CACACA_site4766]", "gcPBM binding intensity (ln)": "8.05 ± 0.39"}, {"sequence": "AATGTCATCATATTCATATATATTTATTTCTTTTTG [GTGCAC_negctrl_site500]", "gcPBM binding intensity (ln)": "8.77 ± 0.44"}, {"sequence": "GGTTATAACCCACATGCACACGTAAATAAATATTAT [CACACA_site5992]", "gcPBM binding intensity (ln)": "9.13 ± 0.4"}, {"sequence": "ATAAATAATAAGGTTACAACAAACACACAAAGGAAT [XGTACX_negctrl_site611]", "gcPBM binding intensity (ln)": "9.29 ± 0.35"}, {"sequence": "TAAAAAAAAAAGTATACACACTTCTTAATGTCAACA [CACACA_site4818]", "gcPBM binding intensity (ln)": "8.59 ± 0.54"}, {"sequence": "TGTCCAATTTATTGTGCACACCTCAAAAGTGGGTAA [CACACA_site3826]", "gcPBM binding intensity (ln)": "8.88 ± 0.4"}, {"sequence": "GATATATAGGTATTTACACACAATGTGAGATCTATA [CACACA_site7575]", "gcPBM binding intensity (ln)": "9.04 ± 0.38"}, {"sequence": "AAAGACTTTTTATGAGCACACACATATATTATGGAG [CACACA_site8254]", "gcPBM binding intensity (ln)": "9.01 ± 0.35"}, {"sequence": "AGATAAAATAAATACACACACATAAATACGTACAAA [CACACA_site4739]", "gcPBM binding intensity (ln)": "9.6 ± 0.38"}, {"sequence": "TTTCTATAATATATATGTACATATATAATATGTCGT [XGTACX_site3676]", "gcPBM binding intensity (ln)": "8.95 ± 0.43"}, {"sequence": "ATGATTATACAAAATATACACACGTGGACACAAATA [CACACA_site8304]", "gcPBM binding intensity (ln)": "9.33 ± 0.44"}, {"sequence": "TGATAATAAGCATACACACACACACTAAAAAAAAAA [CACACA_site6478]", "gcPBM binding intensity (ln)": "9.94 ± 0.38"}, {"sequence": "TACCTATATACATACACACACATATAACCAATGTAG [CACACA_site7096]", "gcPBM binding intensity (ln)": "9.36 ± 0.28"}, {"sequence": "AGAAGATTAAAAATTGCACACAAAAATATATTTTCT [CACACA_site8359]", "gcPBM binding intensity (ln)": "8.88 ± 0.4"}, {"sequence": "TAATAAATAAAAACATGTACATATATACATATATGT [XGTACX_site485]", "gcPBM binding intensity (ln)": "8.76 ± 0.36"}, {"sequence": "TAATCATTTTTAAATTGTACAATTTATATAATAAGT [XGTACX_site6081]", "gcPBM binding intensity (ln)": "8.48 ± 0.48"}, {"sequence": "TTGATATACTATGACACATGCAAATAAAACATTATA [TGCATGCA_site535]", "gcPBM binding intensity (ln)": "8.78 ± 0.25"}, {"sequence": "TTGTATTGTATATGCACACATAGAACACTTTTTTTT [CACACA_site4133]", "gcPBM binding intensity (ln)": "8.89 ± 0.4"}, {"sequence": "TAAATTTTGTTTAGCACACACACATACATACATACA [CACACA_site3155]", "gcPBM binding intensity (ln)": "9.66 ± 0.39"}, {"sequence": "TATTTTTTAAGTGAACATTTGTTATTATATTCTTAT [GTGCAC_negctrl_site172]", "gcPBM binding intensity (ln)": "8.63 ± 0.38"}, {"sequence": "TATATCTGTATCATTACACACATGTATACTTATTTG [CACACA_site6134]", "gcPBM binding intensity (ln)": "9.35 ± 0.38"}, {"sequence": "TATGGGGAACTATAATGTACGTATTCCTCATATATA [XGTACX_site338]", "gcPBM binding intensity (ln)": "8.89 ± 0.38"}, {"sequence": "GATGATACACAGGTGTTGCACTTAAATGCAGTTCTT [GTGCAC_site9627]", "gcPBM binding intensity (ln)": "8.88 ± 0.41"}, {"sequence": "ATTAAAATAGAAAAAAAAAAAAAAAAAAAAAAAAAA [CACACA_negctrl_site1117]", "gcPBM binding intensity (ln)": "8.04 ± 0.36"}]}]}
